From paper PMC5473854, “Structure of the human TRiC/CCT Subunit 5 associated with hereditary sensory neuropathy” (Scientific Reports, 2017)

Biological target: human TRiC/CCT subunit 5 (CCT5), homo-oligomeric complex (human) (UniProt P48643)
Assay: crystal structure; crystallised in complex with 5.0 mM ADP, closed state; sitting-drop vapor diffusion; 0.1 M sodium acetate, 0.04 M citric acid, 0.06 M Bis-Tris propane pH 6.4, 25% (w/v) PEG 400; space group P 4 21 2, 4 subunits per asymmetric unit

stoichiometry N: 16 subunits
Substance: human TRiC/CCT subunit 5 (CCT5), homo-oligomeric complex (a stretch of the chain, sequence not shown) (natural protein; other documents disagree on this pair)
